# Test results from the supplement of paper PMC10126150.
# Sequences with one replicate were seen in a single cluster, so their values are uncertain.
# Tested on: ATP
# Experiment: switch fluorescence ratio, 500 uM ATP over buffer (Cy3 cluster intensity, sum of 5 cycles each) (fold (ratio)); higher = stronger signal-on switching upon ATP binding; sequences stand for … in TCGTCGGCAGCGTCAGATGTGTATAAGAGACAGTTTTTTTTTTTTTTTTTTTTTTTTT…TC
# Details: aptamer strand: ATP DNA aptamer (quencher-CACCTGGGGGAGTATTGCGGAGGAAGG + anchor), 100 nM annealed; ATP concentration: 500 uM; one replicate
# How it was run: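 The quencher-labelled ATP aptamer, at 100 nM, was annealed to Cy3-labelled switching-strand clusters on a modified Illumina MiSeq flow-cell. The clusters were imaged in selection buffer, then after 15 min with 500 uM ATP at 22 °C, and this buffer/ATP cycle ran five times with NaOH stripping and re-annealing between runs. Per-cluster fluorescence ratios, summed target-cycle over summed buffer-cycle Cy3 intensity, were averaged per switch-domain sequence. Clusters outside 100-1000 RFU were excluded.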
# 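Also: ATP exposure 15 min at 22 °C before imaging.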
row,Sequence,switch fluorescence ratio
1,TGGAGCCCGT,1.01
2,TGGAGCCGTT,1.2
3,TGGAGCCTCA,1.02
4,TGGAGCGGCT,0.953
5,TGGAGCTAGG,1.01
6,TGGAGTAAA,2.81
7,TGGAGTGAGT,0.99
8,TGGAGTTAAG,0.987
9,TGGATAACC,1.07
10,TGGATAAGTA,0.968
11,TGGATCAAGA,1.04
12,TGGATCCAAG,0.996
13,TGGATCCATA,0.967
14,TGGATCTTG,1.01
15,TGGATTCCAC,1.01
16,TGGATTGGTG,1
17,TGGATTTAAC,1
18,TGGCACCGCT,1.01
19,TGGCAGCATG,0.95
20,TGGCAGTGCG,1.03
21,TGGCCAATAT,1.03
22,TGGCCATATG,0.989
23,TGGCCCATCT,0.994
24,TGGCCCGCTG,1.03
25,TGGCCGTTTT,1.06
26,TGGCCTATTA,1

row,Sequence,switch fluorescence ratio
1,TGGCCTCGGT,1.01
2,TGGCCTTGGG,0.994
3,TGGCGAATGG,0.971
4,TGGCGAGATT,1.04
5,TGGCGGAGGC,0.979
6,TGGCGGTACT,0.997
7,TGGCGTGTGG,1.04
8,TGGCTATTCC,1.03
9,TGGCTGATAG,0.954
10,TGGCTGATTA,0.981
11,TGGCTGTCTG,1.01
12,TGGCTTACAC,1.04
13,TGGGAGCTAC,1.7
14,TGGGAGGCAG,1.02
15,TGGGATACTC,1.21
16,TGGGATTGCC,1.02
17,TGGGCAACGG,1.04
18,TGGGCGAAC,1
19,TGGGCGATTT,1.29
20,TGGGCGCGTT,1.02
21,TGGGCGGGAA,1.01
22,TGGGCGGGCG,1.07
23,TGGGCGGTCG,1.01
24,TGGGCTATAA,1.4
25,TGGGCTTAAC,0.964
26,TGGGGAATGC,1.27

row,Sequence,switch fluorescence ratio
1,TGGGGACACA,1.08
2,TGGGGCATAC,2.13
3,TGGGGCATTG,1
4,TGGGGCCCAT,1.08
5,TGGGGCGCAA,2.86
6,TGGGGCGTAA,1.03
7,TGGGGGAGT,0.98
8,TGGGGGCC,1.05
9,TGGGGGTCAA,1.04
10,TGGGGGTCG,1.05
11,TGGGGTGCCT,1
12,TGGGTAAGCG,0.976
13,TGGGTACCTT,1.06
14,TGGGTACGCG,0.989
15,TGGGTCGGCG,1.03
16,TGGGTGAAGT,0.99
17,TGGGTGACCG,0.996
18,TGGGTGATTG,1.02
19,TGGGTGCCAA,0.998
20,TGGGTGGGTT,0.963
21,TGGGTTGCGC,1.01
22,TGGGTTGTAG,0.983
23,TGGGTTTAGT,0.959
24,TGGGTTTTCG,0.978
25,TGGTAAAGCC,1.02
26,TGGTACAAAT,0.995

row,Sequence,switch fluorescence ratio
1,TGGTACACTT,0.985
2,TGGTACGTGT,0.997
3,TGGTAGAGGT,0.96
4,TGGTAGCTGG,1
5,TGGTAGGCAC,0.985
6,TGGTATCTCG,0.97
7,TGGTATCTGC,0.955
8,TGGTATTTCT,0.923
9,TGGTCAAGTC,1.01
10,TGGTCCATGT,0.96
11,TGGTCCTAAG,0.982
12,TGGTCGCCCC,1.01
13,TGGTCGGGAA,0.98
14,TGGTCGGGTA,1.04
15,TGGTCTTGGA,0.995
16,TGGTCTTGGC,0.994
17,TGGTGAAAG,0.966
18,TGGTGATTTT,0.983
19,TGGTGCACAC,1.05
20,TGGTGGGAGC,0.962
21,TGGTGGGTGA,0.964
22,TGGTGTATCG,0.96
23,TGGTGTGAC,1.05
24,TGGTGTGCGG,1.08
25,TGGTTAAAAC,1
26,TGGTTAGGTA,1.06

row,Sequence,switch fluorescence ratio
1,TGGTTCCCCC,1.4
2,TGGTTCCGTC,1.02
3,TGGTTCTGT,0.95
4,TGGTTGTGAA,0.983
5,TGGTTGTGTA,1.06
6,TGGTTTGAG,1
7,TGGTTTTTCT,0.974
8,TGTAAAAAAC,1.01
9,TGTAACCTGA,1.5
10,TGTAACGCAT,1.16
11,TGTAAGTTGT,1.02
12,TGTAATAGAG,1.02
13,TGTAATGGAA,0.957
14,TGTAATGTCA,0.975
15,TGTACATTTC,1.05
16,TGTACCAGTT,1.01
17,TGTACCCAGC,1.02
18,TGTACCTAGC,1.05
19,TGTACGGGAG,0.997
20,TGTACGGGG,1.01
21,TGTACGGGTG,1.11
22,TGTAGCAGTT,1.3
23,TGTAGGTT,1
24,TGTAGTCAAC,2.29
25,TGTAGTCGC,1.03
26,TGTAGTGTA,1.08

row,Sequence,switch fluorescence ratio
1,TGTATAACAG,1.01
2,TGTATCCGAT,0.996
3,TGTATCTACT,1.01
4,TGTATCTGCG,1
5,TGTATGAGGA,1.01
6,TGTATGCTGA,0.943
7,TGTATGTTAT,1.02
8,TGTATGTTGA,0.988
9,TGTATTAGGA,0.969
10,TGTATTCGGA,0.943
11,TGTATTTAAA,1.1
12,TGTCAATGCG,0.985
13,TGTCACCAGG,2.58
14,TGTCAGAACC,0.985
15,TGTCAGCAGC,1.07
16,TGTCAGCGAA,1.03
17,TGTCATAGCG,0.997
18,TGTCCCAAAC,1.21
19,TGTCCCCGC,1.42
20,TGTCCTAAT,0.973
21,TGTCCTTCTT,1.03
22,TGTCGGATGA,1.05
23,TGTCGGCATC,1.02
24,TGTCGGCTGT,1.01
25,TGTCGGGAT,0.97
26,TGTCGTGCCC,0.982

row,Sequence,switch fluorescence ratio
1,TGTCTACTAT,0.977
2,TGTCTGAAAG,1.01
3,TGTCTGCTGG,0.969
4,TGTCTGTAAA,1.04
5,TGTCTGTATT,0.965
6,TGTCTTGGAA,1.03
7,TGTCTTGTGT,0.957
8,TGTCTTTTAT,0.994
9,TGTCTTTTCA,0.982
10,TGTGAAAATC,0.93
11,TGTGACGGAT,0.977
12,TGTGAGGCCT,1.08
13,TGTGAGGGAA,1.04
14,TGTGAGTCAA,1.19
15,TGTGATCACC,0.971
16,TGTGATTAC,0.984
17,TGTGCCATGT,1.06
18,TGTGCCCA,1.03
19,TGTGCCGTAT,1.05
20,TGTGCGAGTC,0.995
21,TGTGCGATGC,2.31
22,TGTGCGCTGG,0.991
23,TGTGCGTAAT,1.06
24,TGTGCTAG,1.01
25,TGTGGAATGA,1.02
26,TGTGGGACCA,1.01

row,Sequence,switch fluorescence ratio
1,TGTGGGGTGC,0.967
2,TGTGGGTACC,0.959
3,TGTGGGTTCG,0.984
4,TGTGGTAAAA,0.956
5,TGTGGTAGTT,0.985
6,TGTGGTATGT,0.999
7,TGTGGTGGTT,0.973
8,TGTGGTTGGC,0.984
9,TGTGTAAAAT,1.05
10,TGTGTAACCC,0.966
11,TGTGTAAGCA,1.01
12,TGTGTACGAC,1.02
13,TGTGTACT,1.02
14,TGTGTCCGGT,0.971
15,TGTGTCGAAA,0.998
16,TGTGTCTCTC,1.02
17,TGTGTGGCAC,0.985
18,TGTGTTATTG,0.978
19,TGTGTTGACA,0.947
